Measurements from PubChem BioAssay AID1508642 (National Center for Advancing Translational Sciences (NCATS), 2021).
In all, about 43,000 compounds went through this assay and about 200 (0.47%) were called active. About 12% were inconclusive and are not listed. Calls come from the whole dose curve; as a rule, active = well fitted cell-killing curve with a large enough effect; inconclusive = small, poorly fitted or top-dose-only effect, or effect the other way; inactive = flat fitted curve, though single readings scatter. The list shows a part of the results.

Assay: Cell viability qHTS assay in S16 Pmp22-F2sN cells; note: nearly all actives have a fitted effect of over 65% in size
Conditions: S16 Pmp22-F2sN Schwann cells (luciferase reporters placed in the Pmp22 gene) viability, CellTiter-Glo, 24 h; series mostly up to 57.5 µM; activity change, negative = cytotoxicity: at the top concentration
How it was run: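 S16 Schwann cells carrying the Pmp22-F2sN reporter, seeded in 1536-well format, were exposed to library compounds for 24 h at 37C. Viability was read as CellTiter-Glo luminescence after 15 min at room temperature.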
% is set by controls: 0 for no effect and ±100 for the full control effect.

| Structure (SMILES) | activity change, negative = cytotoxicity |
| --- | --- |
| CC(=O)N1c2ccccc2CC1C(=O)N1CCN(c2ccccc2F)CC1 (stereo not given) | inactive: -27.3% |
| CCOC(=O)C1=C(CNCc2ccc(Cl)cc2)NC(=O)NC1c1ccccc1 (stereo not given) | inactive: -0.866% |
| COc1cccc(/C=C(\C#N)c2nc3ccccc3c(=O)[nH]2)c1OC | inactive: -2.26% |
| COc1cc(NC(=O)Cn2cc(S(=O)(=O)N3CCC(C)CC3)c3ccccc3c2=O)cc(OC)c1OC | inactive: -17% |
| CCCC(C(=O)Nc1cc(C)c(Cl)cc1OC)N1Cc2ccccc2C1=O (stereo not given) | inactive: -21.2% |
| COc1cccc(N2CCN(C(=O)Cn3ncc4c3-c3ccccc3OC4)CC2)c1 | inactive: 23.7% |
| CCOc1ccc(Nc2c(S(=O)(=O)c3ccccc3)cnc3ccc(CC)cc23)cc1 | inactive: -12.9% |
| Cc1ccc(C(=O)c2cn(CC(=O)Nc3ccc4c(c3)OCCO4)c3nc(C)ccc3c2=O)cc1 | inactive: -11.4% |
| CC(C)CCNC(=O)c1ccc(NC(=O)N2CCCCc3ccccc32)cc1 | inactive: 4.7% |
| O=C(CSc1nc2ccccc2n1Cc1ccccc1)NCc1ccccc1 | inactive: -20.2% |
| CC(C)CC(NC(=O)C1CCC(C)CC1)C(=O)OCC(=O)c1ccc(Cl)cc1 (stereo not given) | inactive: 5.54% |
| CC(NC(=O)C1CCN(C(=O)N2CCOc3ccccc32)CC1)c1ccccc1 (stereo not given) | inactive: 6.49% |
| Cc1cccc(NC(=O)CCS(=O)(=O)c2cc(Br)cc3c2N(C(=O)C2CC2)CC3)c1C | inactive: -1.42% |
| CC1=C(C(=O)Nc2cccnc2)C(c2ccc(F)cc2)n2nc(SCc3ccccc3)nc2N1 (stereo not given) | inactive: 18.7% |
| CCCNC(=O)Cn1nc(C)c2c(C)n(-c3ccccc3)nc2c1=O | inactive: 13.5% |
| CC1CCN(S(=O)(=O)c2cccc(C(=O)N(C)C3(C)CCS(=O)(=O)C3)c2)CC1 (stereo not given) | inactive: -1.15% |
| CCCCNC(=O)CSc1nc2ccccc2nc1Cc1ccccc1 | inactive: 28.5% |
| CCc1nn(CCCC(=O)NCc2ccc(OC)c(OC)c2)c(=O)c2cc3occc3n12 | inactive: 7.15% |
| COC(=O)C1CCN(c2csc3ccc(C)cc3c2=O)CC1 | inactive: 15.8% |
| CCN(CCCNC(=O)c1ccc(Sc2ccc(Cl)cc2)c(NC(C)=O)c1)c1cccc(C)c1 | inactive: -2.69% |
| c1ccc(N2CCN(c3ncnc4c3nc3n4CCCCC3)CC2)cc1 | inactive: -11.5% |
| Cc1ccc(C)c(NC(=O)CN(Cc2ccccc2)S(=O)(=O)c2ccc3nc(C)sc3c2)c1 | inactive: -0.95% |
| CN1c2ccccc2-c2nc(SCC(=O)Nc3ccccc3)ncc2S1(=O)=O | inactive: -7.98% |
| O=C(CSc1oc(-c2ccco2)nc1S(=O)(=O)c1ccc(Br)cc1)c1ccc(Cl)cc1 | inactive: -4.34% |

| Structure (SMILES) | activity change, negative = cytotoxicity |
| --- | --- |
| COc1cc(C2Oc3nc(SC)nnc3-c3ccccc3N2C(C)=O)cc(Cl)c1OC (stereo not given) | inactive: -2.1% |
| Cc1cc(Br)ccc1NC(=O)c1sc2ncn(Cc3ccccc3Cl)c(=O)c2c1C | inactive: -12.5% |
| CCN1C(=O)c2ccccc2S(=O)(=O)c2ccc(C(=O)NCc3ccc(F)cc3)cc21 | inactive: 9.51% |
| Cc1ccc(CNC(=O)CN2C(=O)COc3ccc(S(=O)(=O)N4CCC(C)CC4)cc32)cc1 | inactive: 0.921% |
| COc1ccc(NC(=O)c2ccc3[nH]c(C)cc(=O)c3c2)cc1 | inactive: 6.39% |
| Cc1ccc(NC(=O)Cc2coc3c(C)c(C)ccc23)c(C)c1 | inactive: 7.23% |
| Cc1ccc(-n2cc(C(=O)OCc3ccc(Cl)cc3)c3ccccc3c2=O)cc1 | inactive: 1.1% |
| Cc1c(Cl)cccc1NC(=O)C(=O)NCCc1csc(-c2cccc(F)c2)n1 | inactive: 10.7% |
| CC(NC(=O)c1ccc(N2Cc3ccccc3Oc3ncccc32)s1)c1ccccc1 (stereo not given) | inactive: -20.8% |
| Cc1ccc(/C=C/c2onc(C)c2S(=O)(=O)N2CCC(C(=O)NCc3ccc(Cl)cc3)CC2)cc1 | inactive: 1.91% |
| O=C(NCCc1ccc(Cl)cc1)c1ccc2c(c1)N(Cc1ccc(F)cc1Cl)C(=O)CS2 | inactive: 13.2% |
| CCOC(=O)C(C)NC(=O)c1cc2c(=O)[nH]c3ccc(C)cc3c2s1 (stereo not given) | inactive: 11.2% |
| COc1ccc(-c2nc(CSc3nc4ncccc4[nH]3)c(C)o2)cc1OC | inactive: -26.7% |
| CC(NC(=O)Cc1ccc(NC(=O)N2CCCCc3ccccc32)cc1)c1ccccc1 (stereo not given) | inactive: 26% |
| COc1ccc(NC(=O)c2ccc(-c3cccc(Cl)c3C)o2)cc1 | inactive: 2.79% |
| COc1ccc(-c2[nH]c(-c3ccccc3)nc2SCC(=O)Nc2ccc3c(c2)OCO3)cc1 | inactive: -25.2% |
| CCn1c(CN2CCCCC2)nc2cc(NC(=O)COc3ccc([N+](=O)[O-])cc3)ccc21 | inactive: -4.59% |
| Cc1cc(=O)n(C(C)C(=O)NCc2ccccc2Cl)c2c1c(C)nn2-c1ccccc1 (stereo not given) | inactive: -12.7% |
| O=C(Nc1ccc(F)cc1)c1cccc(N2CCCS2(=O)=O)c1 | inactive: 2.36% |
| Cc1c2cnn(CC(=O)N3CCCCC3)c(=O)c2c(C)n1Cc1ccc(Cl)cc1 | inactive: -8.05% |
| CCc1ccc(C2N3CC4(C)CN2CC(c2ccccc2)(C3)C4=O)cc1 (stereo not given) | inactive: 4.5% |
| Cc1ccc(NC(=O)c2ccc3c(=O)n4nc(Nc5ccccc5C)sc4nc3c2)cc1C | inactive: 10.6% |
| CCn1cc(C(=O)NCc2ccccc2)c(=O)c2cc(S(=O)(=O)N3CCOCC3)ccc21 | inactive: 1.63% |
| COC(=O)C1=C(C)NC(=O)NC1c1cn(-c2ccccc2)nc1-c1ccc(OC)c(Cl)c1 (stereo not given) | inactive: -27.4% |

| Structure (SMILES) | activity change, negative = cytotoxicity |
| --- | --- |
| Cc1ccc(C(C)C)c(OCC(=O)Nc2c(C(=O)c3ccc(F)cc3)oc3ccccc23)c1 | inactive: 10.2% |
| Cc1cc(O)c(C(c2ccccc2Cl)N2CCCCC2)c(=O)n1Cc1ccco1 (stereo not given) | inactive: -5.9% |
| COc1ccc(N(C(=O)c2ccccc2C)S(=O)(=O)c2ccc3c(c2)n(C)c(=O)n3C)cc1 | inactive: 7.04% |
| CCOc1ccccc1NS(=O)(=O)c1c(C(=O)OC)sc2cccc(F)c12 | inactive: 7.1% |
| COc1ccc(OC)c(CCNC(=O)c2sc3nc4n(c(=O)c3c2C)CCCC4)c1 | inactive: 2.48% |
| CCNc1c(NC(=O)c2ccccc2OCC)c(=O)oc2ccccc12 | inactive: 5.24% |
| CSCCC(NC(=O)C1CCCCC1)C(=O)Nc1ccc(F)c(Cl)c1 (stereo not given) | inactive: -2.1% |
| CCN(c1ncnc2c1c(-c1ccccc1)cn2-c1ccccc1)C1CCCCC1 | inactive: 8.59% |
| Cc1ccc(OCC(=O)OCc2cc(=O)n3nc(C4CCCCC4)sc3n2)cc1 | inactive: -11.9% |
| Cc1ccc(S(=O)(=O)N2CCCc3cc(NC(=O)c4ccc(C(F)(F)F)cc4)ccc32)cc1 | inactive: -25.5% |
| COc1cccc(-c2nc(SC(C(C)=O)C(=O)N(C)C)c3c(=O)n(C)c(=O)n(C)c3n2)c1 (stereo not given) | inactive: -7.38% |
| CCOC(=O)C1=C(CNCc2ccccc2)NC(=O)NC1c1ccc(C)cc1 (stereo not given) | inactive: -10.1% |
| Cc1ccc(N2C(=O)[C@@H]3CSC(c4ccc(C(F)(F)F)cc4)N3C2=O)cc1 (stereo not given in full) | inactive: 2.57% |
| Cc1ccc(-c2cc(-c3coc4ccccc4c3=O)c3c(n2)-c2cc(Cl)ccc2OC3)cc1 | inactive: 12% |
| COc1ccccc1NC(=O)Cn1c(SCC(=O)NCc2ccccc2)nc2ccccc21 | inactive: -4.73% |
| CC(=O)Nc1ccc(-c2nnc3n(CC(C)C)c(=O)c4ccccc4n23)cc1 | inactive: -15.6% |
| COc1cc(-c2nnc(SCC(=O)N(C)C3CCCCC3)o2)cc(OC)c1OC | inactive: -9.66% |
| COc1ccc(NC(=O)CCCN2C(=O)C(c3ccccc3)Oc3cccnc32)cc1OC (stereo not given) | inactive: 5.28% |
| Cc1ccc(CCNC(=O)CCCn2nc(C)c3c(C)n(-c4ccc(C)cc4)nc3c2=O)cc1 | inactive: 0.539% |
| COc1ccc(CCC(=O)NCCc2csc(-c3cccc(F)c3)n2)cc1 | inactive: 9.14% |
| COc1ccc(NC(=O)c2oc3ccc4c(c3c2C)C(=O)CC(C)(C)O4)cc1OC | inactive: 5.78% |
| COc1cc2c(cc1NC(=O)C(C)Oc1ccc(Cl)cc1Cl)oc1ccccc12 (stereo not given) | inactive: 4.88% |
| CCc1ccc(OCC2c3cc(OC)c(OC)cc3CCN2C(=O)Cc2ccc(OC)c(OC)c2)cc1 (stereo not given) | inactive: -25.7% |
| CCOC(=O)C1=C(CS(=O)(=O)c2ccc(F)c(C)c2)NC(=O)NC1c1ccc(F)c(F)c1 (stereo not given) | inactive: -0.878% |

| Structure (SMILES) | activity change, negative = cytotoxicity |
| --- | --- |
| CC(=O)N1CCc2c(sc(NC(=O)CSc3ccc(C)cc3)c2-c2nc3ccccc3s2)C1 | inactive: -0.922% |
| Cc1cccc(N2CCN(C(=O)c3cccc(-n4c(C)nc5cccnc54)c3)CC2C)c1 (stereo not given) | inactive: -19.7% |
| Cc1c(C(=O)Nc2ccccc2Cl)oc2ccc(S(=O)(=O)N3CCCCCC3)cc12 | inactive: -0.0524% |
| O=C1CC(=O)Nc2cc(S(=O)(=O)Nc3cccc(Br)c3)ccc2N1 | inactive: -1.8% |
| COC(=O)c1cc2sc(Cl)cc2n1Cc1nc(-c2ccccc2F)oc1C | inactive: -5.2% |
| Cc1ccc(CCNC(=O)c2ccc(CNS(=O)(=O)c3ccc(F)cc3)cc2)cc1 | inactive: 8.45% |
| COc1ccc(OC)c(CCNc2ncnc3onc(C)c23)c1 | inactive: -17.2% |
| Cc1cc(C)c2c(n1)SCC(=O)N2CC(=O)Nc1c(C)cccc1C | inactive: 9.96% |
| Cc1cc(C)cc(NC(=O)Nc2c[nH]c(=O)[nH]c2=O)c1 | inactive: 1.49% |
| COCCN1C(=O)c2oc3ccc(C)cc3c(=O)c2C1c1ccc(C(=O)OC)cc1 (stereo not given) | inactive: 6.17% |
| CSc1ncc(C(=O)NCc2cccc(Br)c2)c(-c2ccccc2)n1 | inactive: 0.276% |
| O=C(Cn1c(=O)c2sccc2n(CC(=O)Nc2ccc(Cl)cc2Cl)c1=O)NCCc1ccccc1 | inactive: -2.16% |
| Cc1ccc(NC(=O)N2CCc3c([nH]c4ccccc34)C2c2ccccc2F)c(Cl)c1 (stereo not given) | inactive: -6.32% |
| CCCN1Cc2cccc(C(=O)Nc3ccc(OC)cc3OC)c2C1=O | inactive: 18.2% |
| COc1cccc(C(=O)c2cn(CC(=O)Nc3cccc(Cl)c3C)c3nc(C)ccc3c2=O)c1 | inactive: 8.59% |
| COc1ccc(C(C(=O)NCc2ccccc2)N(C(=O)Cn2nnc3ccccc32)c2ccc(OC)cc2)cc1 (stereo not given) | inactive: 1.65% |
| COc1ccc(CNS(=O)(=O)c2ccc3c(c2)C(C)(C)C(=O)N3C)cc1OC | inactive: -3.59% |
| Cc1ccc(C(C)C)c(OCC(=O)Nc2ccc(-c3nc4ncccc4o3)cc2C)c1 | inactive: -4.2% |
| O=C(NCc1ccccc1F)C(=O)NCC(c1ccco1)S(=O)(=O)c1ccccc1 (stereo not given) | inactive: -3.79% |
| Cc1ccc(CC(=O)NCc2nc(-c3cccc(C)c3)no2)cc1 | inactive: 15.2% |
| Cc1ccc(N(C)C(=O)c2noc3c2CCCCC3)cc1C | inactive: 3.05% |
| CN(C)c1ccc(-c2nc3ccccn3c2Nc2ccc3c(c2)OCCO3)cc1 | inactive: -19% |
| Cc1cccc(N2CCN(C(=O)c3c4c(nc5ccccc35)C(=O)N(C3CCCCC3)C4)CC2)c1C | inactive: 18.3% |
